# Test results as given in the BET-seq Pho4 binding data (Le et al. 2018).
# Some of the results follow. The energies were worked out here from pooled read counts, against the library average; single values are noisy.
# Molecular target: T1, Pho4 (S. cerevisiae) (UniProt P07270)
# T1 sequence: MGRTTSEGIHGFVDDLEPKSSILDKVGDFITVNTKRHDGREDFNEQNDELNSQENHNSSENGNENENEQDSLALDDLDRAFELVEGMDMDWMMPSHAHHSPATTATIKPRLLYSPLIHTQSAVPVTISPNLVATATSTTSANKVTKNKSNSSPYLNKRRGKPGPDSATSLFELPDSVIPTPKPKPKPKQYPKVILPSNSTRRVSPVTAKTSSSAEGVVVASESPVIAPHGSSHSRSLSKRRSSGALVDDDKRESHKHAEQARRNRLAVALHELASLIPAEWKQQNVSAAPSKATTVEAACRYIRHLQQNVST
# Assay: relative binding free energy (BET-seq); higher = weaker binding
# Conditions: reference: library average
row,Sequence,relative binding free energy [kcal/mol]
1,TAATGCACGTGTCTAT,0.07
2,GTCCTCACGTGTTGTG,0.27
3,TTAGCCACGTGAAGTT,0.28
4,AAGTTCACGTGGGTCT,0.15
5,GGGTCCACGTGATGTG,0.13
6,GAGTGCACGTGGAGTG,0.04
7,TTTTGCACGTGCGAGC,0.01
8,GGTTTCACGTGCAGGT,0.19
9,TGAGTCACGTGTAATA,0.22
10,AGCGTCACGTGTATGG,0.15
11,GACTTCACGTGTTGGG,0.32
12,AAGTCCACGTGTATGG,0.1
13,TTCTTCACGTGGAGAT,0.24
14,CAGTTCACGTGTGTCG,0.33
15,GGTATCACGTGAGGTC,0.32
16,TGTGGCACGTGGAAAC,-0.01
17,GGGGGCACGTGTATTA,-0.01
18,ATGGTCACGTGTATTC,0.04
19,GGTGGCACGTGTGGGT,0.03
20,GTAGGCACGTGCATGT,-0.14
21,GATTACACGTGTTGTT,0.28
22,TGAGTCACGTGGAGCT,0.15
23,AGTGACACGTGGCGAG,0.04
24,TTCCTCACGTGGTTGT,0.1
25,AGTGTCACGTGGCAAT,0.06
26,AGATACACGTGGGGGT,-0.23

row,Sequence,relative binding free energy [kcal/mol]
1,TGGAACACGTGGTAGT,-0.01
2,CTAGTCACGTGTGTCT,0.13
3,GGTTTCACGTGGGTAG,0.21
4,TGTAACACGTGTGGAC,0.06
5,TGATACACGTGTTAGT,0.08
6,GGACTCACGTGTGTGT,0.24
7,GGAGTCACGTGAGTTT,0.42
8,AAAGTCACGTGTAATG,0.15
9,GATGGCACGTGAGTGT,0.19
10,TCTGGCACGTGGGATA,-0.12
11,AATATCACGTGTTGGA,0.08
12,GCCGTCACGTGGGCGG,-0.02
13,GGTGTCACGTGCGCTT,-0.02
14,AACATCACGTGTTGGT,0.14
15,ATGTACACGTGTATAG,0
16,TGATACACGTGTTTAA,-0.06
17,TTATTCACGTGATAAA,0.29
18,TGCTACACGTGGGGAT,-0.13
19,TGTTGCACGTGGTTTG,0.01
20,GTGGCCACGTGGTAGA,-0.14
21,TTTCTCACGTGGAGGG,0.14
22,TGGTACACGTGCCGGG,-0.02
23,GGTGTCACGTGCTGGC,0.22
24,GTAGACACGTGTAGTG,0.05
25,ACGGGCACGTGAGGGG,0.06
26,TGTGTCACGTGCGGTG,0.11

row,Sequence,relative binding free energy [kcal/mol]
1,TCCTGCACGTGGTGTG,-0.17
2,AAATTCACGTGGGAGT,0.32
3,GGCGGCACGTGGGGAG,-0.25
4,CGCGTCACGTGGTGCG,-0.07
5,AGAGGCACGTGGCTGA,-0.1
6,GATCTCACGTGTGAGT,0.38
7,GAGGACACGTGATGGC,0.12
8,AGGGCCACGTGATGGT,-0.04
9,GGGTTCACGTGGTGTA,0.32
10,TTGTTCACGTGTCAGA,0.3
11,ATTGACACGTGTATAA,0.07
12,TGTAGCACGTGTATTA,-0.01
13,ATAGTCACGTGTAGAT,0.12
14,TTGGGCACGTGAGCAG,0.03
15,ATTGGCACGTGCGTAG,-0.08
16,AGAGGCACGTGTAAGT,-0.03
17,GGAGGCACGTGTCTGG,-0.15
18,GTTTCCACGTGCTGGG,0.07
19,ATGCTCACGTGGAGGG,0.12
20,CTTGTCACGTGAATAG,0.28
21,GAGTGCACGTGTGTTA,0.01
22,CGCCGCACGTGTGGTG,0
23,TGTTGCACGTGTGCAT,-0.02
24,GTGAACACGTGTCTTG,0.09
25,GAGGGCACGTGTTCGT,-0.02
26,TGAAACACGTGGTTGT,0.03

row,Sequence,relative binding free energy [kcal/mol]
1,TGTCGCACGTGGATGG,0
2,CATTTCACGTGAGGTG,0.29
3,GTCGGCACGTGTGGAA,-0.1
4,AATAACACGTGGGCTT,-0.03
5,TTGAGCACGTGTACGG,0.02
6,AGTCACACGTGTGGAG,0.07
7,TTCATCACGTGTTAGT,0.12
8,GAGGGCACGTGACAGT,0.06
9,AATAGCACGTGTTTGG,-0.19
10,GATTGCACGTGGCATT,0.04
11,AGTACCACGTGGTTTG,-0.02
12,TATCGCACGTGCGGTT,-0.15
13,CTTGGCACGTGTTATG,-0.05
14,AGAGGCACGTGTAGAT,0.14
15,CATTACACGTGGAGGG,-0.03
16,TTGCGCACGTGTGCAG,-0.18
17,TAGTCCACGTGGGATG,0.07
18,TGCTACACGTGTTGGT,0
19,CTAGACACGTGGAGGG,-0.03
20,TATCGCACGTGGTTAT,-0.14
21,GGGGGCACGTGTTATG,-0.01
22,ATGTTCACGTGTGAAT,0.32
23,CGTGTCACGTGGGGAT,-0.02
24,TGGCGCACGTGGGTTA,-0.15
25,AAAGTCACGTGTGGAA,0.16
26,GAGGTCACGTGAAAGT,0.47

row,Sequence,relative binding free energy [kcal/mol]
1,TGGGACACGTGTTGGC,0.07
2,TTGTCCACGTGGTGTA,-0.02
3,ATGCACACGTGTATTT,0.12
4,AAAGACACGTGGAAGG,0.2
5,GGGTTCACGTGATCAG,0.27
6,TGGGGCACGTGGTAGT,-0.08
7,ATGGTCACGTGTCATA,0.26
8,TTTCGCACGTGTTAGA,0.07
9,CTTTTCACGTGGGCGA,0.27
10,ATGGTCACGTGATTGT,0.17
11,CTGAGCACGTGTGGAG,-0.01
12,TTAGACACGTGGTCTG,-0.21
13,GGTATCACGTGGTAGT,0.17
14,GTGTTCACGTGGGGCG,0.13
15,TTCCGCACGTGGGCGG,-0.09
16,TGAGCCACGTGTGGAT,-0.03
17,CGGGTCACGTGAAAGT,0.43
18,AGGGCCACGTGTTGGT,-0.12
19,TTGAGCACGTGACTTG,0.06
20,GGAACCACGTGGTGTT,0.03
21,ATGTGCACGTGTCGGG,0.09
22,AGTGTCACGTGTTGTT,0.09
23,GGTGGCACGTGGGTCC,-0.13
24,CTGGGCACGTGCTGGG,-0.07
25,CAGGGCACGTGATTTA,-0.04
26,TACGACACGTGGGTGA,-0.03

row,Sequence,relative binding free energy [kcal/mol]
1,TGGACCACGTGGGTTG,-0.21
2,GGGTTCACGTGGGGTA,0.14
3,AGTGACACGTGTGAAA,0.18
4,TCTGTCACGTGGTAAG,0
5,AAAGGCACGTGTTGAA,0.09
6,TATCGCACGTGTTAGT,0.02
7,TTATGCACGTGACTGT,0.07
8,ACTTGCACGTGTGTGT,-0.1
9,CATAGCACGTGATTGT,0.06
10,GGTGACACGTGTGGTC,0.21
11,GGTGTCACGTGATACT,0.22
12,TAATTCACGTGCTGTA,0.28
13,GGAATCACGTGCTGTA,0.26
14,TATATCACGTGGCATA,0.16
15,AGGGTCACGTGCAAGT,0.04
16,CGTAGCACGTGTTGAA,0.04
17,ATGGGCACGTGGACCT,0.09
18,TTAGACACGTGTCGTG,0.04
19,TGTCGCACGTGATGTG,0.05
20,AAGTGCACGTGGGCCG,-0.24
21,TGCAGCACGTGTTGTA,-0.11
22,GTGGTCACGTGGAGGA,0.13
23,TACGGCACGTGAGGTG,0.05
24,GCTGGCACGTGTTTGC,0.13
25,AGTGACACGTGTTAAG,0
26,GATGACACGTGTTCGG,0.16

row,Sequence,relative binding free energy [kcal/mol]
1,AGGTTCACGTGTATAT,0.27
2,TTTGACACGTGTTTTG,0.06
3,TACTTCACGTGCTGGT,0.19
4,GCGTGCACGTGATAGG,0.04
5,CCTGACACGTGGGGGT,-0.1
6,TACTTCACGTGTTGAT,0.24
7,TGTGGCACGTGGTATT,-0.1
8,GTAAGCACGTGGGTTT,-0.13
9,TTTGTCACGTGCTGTA,0.01
10,GGTGGCACGTGCAATT,0.05
11,TCAGGCACGTGTATAT,-0.03
12,TGTGACACGTGCGCGG,-0.31
13,TGGAACACGTGGATGT,0.05
14,GGTCTCACGTGGGGGC,0.21
15,GGGAACACGTGTTTTG,0.03
16,GATCGCACGTGTGAGT,0.07
17,GGTCTCACGTGAGTAG,0.43
18,TCTTACACGTGGGTGA,-0.1
19,TTGGTCACGTGGTTCG,0.06
20,GTAAGCACGTGGTTCT,0.01
21,TGCTCCACGTGTAGGG,-0.04
22,GTAGGCACGTGGCGTT,-0.16
23,GGTGGCACGTGGATGT,-0.04
24,AAGCTCACGTGTGTGG,0.21
25,GTTGCCACGTGTTGTC,0.03
26,GGCTTCACGTGACTTG,0.53

row,Sequence,relative binding free energy [kcal/mol]
1,GTTAACACGTGTTGGG,0.08
2,TCATGCACGTGAGTTA,0.15
3,ATTGTCACGTGAAGTT,0.19
4,TGGAACACGTGTGTCG,0.04
5,ATTTACACGTGTGATG,0.29
6,ATTCGCACGTGTGGGT,-0.04
7,GTGTCCACGTGTCGTG,0.04
8,GTAAGCACGTGGGGCT,-0.15
9,CGAGTCACGTGGAGGG,-0.09
10,GATTTCACGTGAGAGT,0.36
11,TAAGTCACGTGGTGCG,-0.09
12,GAGGCCACGTGTTGTT,0.11
13,AGTCGCACGTGATGTA,0.08
14,GCTGTCACGTGGGTCA,0.03
15,CGGGCCACGTGAGGCG,0.13
16,TTTATCACGTGCGAGA,0.23
17,GGTGGCACGTGCTGGA,-0.11
18,TATGGCACGTGGGGAG,-0.17
19,GGTTGCACGTGGAAGG,0.2
20,GGTTTCACGTGGGAAT,0.31
21,GAGGTCACGTGGACTG,0.07
22,TGCGTCACGTGGGACT,0
23,GTGGGCACGTGTCTCG,-0.04
24,CTTTGCACGTGTGGGC,0.19
25,AGGTACACGTGTTAGG,0.1
26,GGTGTCACGTGCATAT,0.18

row,Sequence,relative binding free energy [kcal/mol]
1,GAAGTCACGTGATTTG,0.39
2,TTTTGCACGTGAGAGT,0.21
3,GCGGTCACGTGGTCTT,0.1
4,GAGGGCACGTGTAGGT,-0.05
5,ATTTACACGTGTTTGT,-0.03
6,AAGTTCACGTGATGGA,0.3
7,TGGGGCACGTGTGTGT,-0.11
8,GTGATCACGTGGGGAG,0.04
9,GGGAGCACGTGGTGTA,-0.09
10,TGGAACACGTGTTGTA,0.03
11,AGTGCCACGTGTTTGA,-0.14
12,ATTAGCACGTGATTGC,0.09
13,TTTTGCACGTGGCGGT,-0.07
14,TATTACACGTGACTTT,0.34
15,AGGGTCACGTGACCGG,0.1
16,GAGTACACGTGGAATT,0.41
17,AGTTACACGTGAATTA,0.51
18,GGGGGCACGTGCATGG,-0.2
19,GTCATCACGTGCGGTG,0.19
20,TGGCTCACGTGTCTGG,0.15
21,TTGGGCACGTGATGAA,-0.03
22,ATCTGCACGTGGATGG,0.17
